Data as given in PubChem BioAssay AID686979 (National Center for Advancing Translational Sciences (NCATS), 2013).
The campaign covered roughly 420,000 compounds. About 50,000 (12%) were called active. The shares of active, inactive and inconclusive entries below differ from those in the screen. Calls come from the whole dose curve; as a rule, active = well fitted inhibition curve with a large enough effect; inconclusive = small, poorly fitted or top-dose-only effect; inactive = flat fitted curve, though single readings scatter. Potencies of inconclusive entries are left out as doubtful fits.

Test: qHTS for Inhibitors of human tyrosyl-DNA phosphodiesterase 1 (TDP1): qHTS in cells in presence of CPT; note: nearly all actives have a fitted effect of over 55% in size
Conditions: chicken DT40 Tdp1-/-;hTDP1 cells + 20 nM CPT, ATP luminescence, 48 h; activity change, negative = growth inhibition: at 46.2 µM (top of the series) unless noted
Procedure, shortened: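 Chicken DT40 Tdp1-/- cells complemented with human TDP1, 400 cells/well, exposed to compounds plus 20 nM camptothecin for at least 48 h at 37 C; viability read as ATP content by CellTiter-Glo luminescence.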
% is set by controls: 0 for no effect and ±100 for the full control effect; potency is the fitted concentration of half-maximal effect; tags give direction and shape of the fitted curve.

Structure (SMILES) | Potency | activity change, negative = growth inhibition
Cc1cccc(N2CCN(C(=O)CNC(=O)Cc3ccccc3)CC2)c1C | inconclusive [inhibitor, single point] | 
O=C(CSc1nccn1-c1ccc(F)cc1)Nc1cccc2ccccc12 | inconclusive [inhibitor, single point] | 
CC(=O)Nc1ccc(NC(=O)c2ccc(N(Cc3ccccc3C)S(C)(=O)=O)cc2)cc1 | inconclusive [inhibitor, single point] | 
CCc1nnc(SCc2nc(-c3cccc(C)c3)oc2C)c2cc3sc(C)cc3n12 |  | inactive: -6.05%
CCc1cc(=O)oc2c3c(cc(OCC(=O)NC4CC4)c12)OC(C)(C)CC3 | inconclusive [inhibitor, single point] | 
N#CCCN(C(=O)COC(=O)c1ccc2c(c1)OCO2)c1ccccc1 |  | inactive: 7.32%
N#Cc1cc(-c2ccccc2)nc(Oc2ccc(Cl)cc2)n1 | inconclusive [inhibitor, single point] | 
Cc1ccc(NC(=O)CSc2nc(C3CCCC3)nc3c2c(=O)n(C)c(=O)n3C)c(C)c1 |  | inactive: -19.9%
CCOc1ccc(CCNC(=O)COC(=O)c2cccnc2SC)cc1OCC |  | inactive: 11.3%
COc1cccc(N(CC(=O)NCCN2CCOCC2)S(=O)(=O)c2ccccc2)c1 |  | inactive: -0.93%
OC(COCc1ccco1)CN1CCN(C(c2ccccc2)c2ccccc2)CC1 (stereo unspecified) | inconclusive [inhibitor, single point] | 
COc1cc([N+](=O)[O-])cc(/C=N/NC(=O)c2cc(-c3ccccc3)nc3ccccc23)c1O | active: 20.6 µM | 
Cc1cccc(N(CC(=O)NC(C)C)C(=O)CCC(=O)Nc2ccccn2)c1 |  | inactive: -5.01%
Cc1cc(C)c2c(N)c(C(=O)N/N=C/c3cccs3)sc2n1 |  | inactive: -9.39%
COc1ccc(Cn2cc(CN3CCc4onc(-c5ccc(Br)cc5)c4C3=O)nn2)cc1 | active: 16.4 µM | 
Nc1ccc(OCCCc2c(N)nc(N)nc2N)cc1 |  | inactive: -29.6%
CN1CCN(C2(CNC(=O)COc3ccc(C(C)(C)C)cc3)CCCCC2)CC1 | inconclusive [inhibitor, single point] | 
CCN(CC)S(=O)(=O)c1ccc2c(c1)N(CC(=O)NCCCN1CCN(c3cc(C)ccc3C)CC1)C(=O)CO2 | active: 2.59 µM | 
CCC(=O)c1ccc(OCC(=O)Nc2ccc(N3CCCCC3)cc2)cc1 |  | inactive: -105%
CC(C)c1ccc(CNCCSc2nnnn2-c2ccccc2)cc1 | active: 16.4 µM | 
CCOC(=O)c1cc(-c2cccc(C(F)(F)F)c2)nc2nc(SC)[nH]c(=O)c12 |  | inactive: 6.57%
Cc1nc2ccccc2c(=O)n1Cc1ccc([N+](=O)[O-])cc1 |  | inactive: -21.5%
Cc1cccc(C(=O)OCC(=O)c2cccc(Br)c2)c1O |  | inactive: -5.5%
CCc1cccc(C)c1NC(=O)C(c1ccccc1)N1CCC1=O (stereo unspecified) |  | inactive: -17.7%
FC(F)(F)c1ccccc1-c1cncnc1NCCc1cnc[nH]1 | inconclusive [inhibitor, single point] | 
Cc1c(-n2cc(C(=O)O)c(=O)c3cc(F)c(N4CCCC(O)C4)c(F)c32)c(=O)n(-c2ccccc2)n1C (stereo unspecified) |  | inactive: -9.82%

Structure (SMILES) | Potency | activity change, negative = growth inhibition
COc1ccc(CN(Cc2cc3cc(C)ccc3[nH]c2=O)C(=O)N(C)C)cc1 |  | inconclusive: -34.8% [inhibitor]
Cc1ccccc1NC(=O)CCCNC(=O)c1ccc(Cl)cc1 |  | inactive: 1.78%
COc1cccc(Cn2cc(C)cc(NC(=O)NCc3ccccc3)c2=O)c1 |  | inactive: 0.396%
CC(NC(=O)COc1cccnc1[N+](=O)[O-])c1ccc(Cl)cc1Cl (stereo unspecified) |  | inactive: -21.6%
OC(CNCc1ccco1)Cn1c2ccccc2c2ccccc21 (stereo unspecified) | inconclusive [inhibitor, single point] | 
O=C(N/N=C/c1cccs1)c1c[nH]c2ccccc12 | inconclusive [inhibitor, single point] | 
Cc1cc(C)cc(NC(=O)C2CCN(c3nc4ccccc4nc3C(F)(F)F)CC2)c1 | inconclusive [inhibitor, single point] | 
Cc1nc(NC(=O)c2cccnc2)ccc1Br |  | inactive: -23%
CCC(C(=O)NC1CCCC1)N(C(=O)Cn1nnc(-c2ccc(C)o2)n1)c1ccc(OC)c(OC)c1 (stereo unspecified) |  | inactive: 4.9%
CC1(C)NC(=O)N(CCCOc2ccc3c(c2)CCC3)C1=O | inconclusive [inhibitor, full curve, poor fit] | 
O=C(c1ccsc1)N1CCCC(N2CCN(c3cccc(Cl)c3)CC2)C1 (stereo unspecified) | inconclusive [inhibitor, single point] | 
CCc1ccc(NC(=O)Cn2c(=O)n(CCC(=O)NCCc3ccc(OC)c(OC)c3)c(=O)c3ccccc32)cc1 |  | inactive: -3.71%
CCOC(=O)N1CCN(C(=O)c2ccc(Cn3c(=S)[nH]c4cc(C(=O)OC)ccc4c3=O)cc2)CC1 | inconclusive [inhibitor, partial curve] | 
COc1ccc(CNc2ncnc3ccc(-c4c(C)noc4C)cc23)c(OC)c1 |  | inactive: -6.96%
O=C(Nc1ccc(F)cc1F)Nc1sccc1-c1nc2ccccc2s1 |  | inactive: 0.0477%
CCc1nc(Nc2ccccc2F)c2oc3ccccc3c2n1 | inconclusive [inhibitor, partial curve] | 
O=C1NN=C(c2ccc(Cl)cc2)CC1c1c[nH]c2ccccc12 (stereo unspecified) | inconclusive [inhibitor, single point] | 
CC(=O)Nc1nc2ccccc2n1CCOc1ccccc1Cl | inconclusive [inhibitor, single point] | 
O=C(/C=C/c1ccncc1)c1ccc(NC(=O)c2ccccc2F)cc1 | active: 4.11 µM | 
Fc1cccc(NCCc2c[nH]c3ccccc23)n1 |  | inactive: -26.8%
CN(Cc1ccccc1)C(=O)c1ccc(CSc2nc3cccnc3n2Cc2ccccc2)cc1 | active: 11.6 µM | 
COc1cc(CN2CCN(c3cccc(C)c3C)CC2)cc(OC)c1O | inconclusive [inhibitor, single point] | 
O=C1NC(c2ccccc2O)Nc2ccccc21 (stereo unspecified) |  | inactive: -18.8%
COc1ccc(C(=O)NC(=O)COC(=O)C2CC2C)cc1 (stereo unspecified) |  | inactive: -3.71%
COc1ccc(C2=NN(C(=O)CSc3nnnn3C)C(c3ccco3)C2)cc1 (stereo unspecified) | inconclusive [inhibitor, single point] | 
